In all, about 81,000 sequences were measured (“one-hybrid fitness for binding parS DNA”: median about -0.17, highest 2% from about 0.51 on). The list shows a part of the results.
B1: Caulobacter ParB omega fusion; a variant is named by its letters at X, in order, B8GW30 (parent)
chain: MESVVVGEPGMSEGRRGLGRGLSALLGEVDAAPAQAPGEQLGGSREAPIEILQRNPDQPRRTFREEDLEDLSNSIREKGVLQPILVRPSPDTAGEYQIVAGERAWRAAQRAGLKTVPIMVRELDDLAVLEIGIIENVQRADLNVLEEALSYKVLMEKFERTQENIAQTIGKSXSHVANXMRLLXLPDEVQSYLVSGELTAXHARAIAAAADPVALAKQIIEGGLSVRETEALARKAPNLSAGKSKGGRPPRVKDTDTQALESDLSSVLGLDVSIDHRGSTGTLTITYATLEQLDDLCNRLTRGI

Variants of: B1
Experiment: one-hybrid fitness for binding parS DNA (scaled: cognate 1, non-cognate 0); higher = stronger binding
Details: with parS DNA site
Summary of the method: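 In E. coli USO, a HIS3 reporter with its site placed 19 bp from the promoter was used to select Caulobacter ParB variants randomised at four specificity codons. Growth lasted 48 hours at 37°C on histidine-free M9 containing 0.1 mM IPTG and 5 mM 3-AT. Fitness was taken as the log change in variant-to-wild-type read ratio from Illumina sequencing of pre- and post-selection plasmids, rescaled between the non-cognate and cognate sites.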

Row | Variant | one-hybrid fitness for binding parS DNA
1 | GRLL | ≤ 0.2
2 | HRIG | ≤ 0.2
3 | VQCF | ≤ 0.2
4 | KCGC | ≤ 0.2
5 | SQSS | ≤ 0.2
6 | RAHT | 0.928
7 | KMCT | ≤ 0.2
8 | AFDL | ≤ 0.2
9 | PHMT | ≤ 0.2
10 | LYHD | ≤ 0.2
11 | FPHG | ≤ 0.2
12 | DLEP | ≤ 0.2
13 | SSLY | ≤ 0.2
14 | LDAP | ≤ 0.2
15 | TRIG | ≤ 0.2
16 | HYAQ | ≤ 0.2
17 | VTEW | ≤ 0.2
18 | GMYT | ≤ 0.2
19 | HRHR | ≤ 0.2
20 | TPAM | ≤ 0.2
21 | LRPM | ≤ 0.2
22 | QHMI | ≤ 0.2
23 | HDLT | ≤ 0.2
24 | NFHS | ≤ 0.2

Row | Variant | one-hybrid fitness for binding parS DNA
25 | QHFY | ≤ 0.2
26 | LKWY | ≤ 0.2
27 | TATY | ≤ 0.2
28 | VTYS | ≤ 0.2
29 | FRLT | ≤ 0.2
30 | PNRQ | ≤ 0.2
31 | RERC | 0.334
32 | HGVC | ≤ 0.2
33 | RDMK | ≤ 0.2
34 | RFGV | ≤ 0.2
35 | CMTI | ≤ 0.2
36 | LFNF | ≤ 0.2
37 | NGTF | ≤ 0.2
38 | GPLF | ≤ 0.2
39 | PDTC | ≤ 0.2
40 | RMNL | ≤ 0.2
41 | EMIC | ≤ 0.2
42 | YEGP | ≤ 0.2
43 | RAGF | 0.247
44 | CCMW | ≤ 0.2
45 | LRVA | ≤ 0.2
46 | NAAY | ≤ 0.2
47 | PRDY | ≤ 0.2
48 | PGKT | ≤ 0.2

Row | Variant | one-hybrid fitness for binding parS DNA
49 | HNLR | ≤ 0.2
50 | DMMV | ≤ 0.2
51 | HARL | ≤ 0.2
52 | NGQF | ≤ 0.2
53 | QHQL | ≤ 0.2
54 | ATST | ≤ 0.2
55 | QEMW | ≤ 0.2
56 | KVED | ≤ 0.2
57 | RHGF | ≤ 0.2
58 | PNKY | ≤ 0.2
59 | GPPS | ≤ 0.2
60 | RVDG | 0.874
61 | NKWC | ≤ 0.2
62 | HLIP | ≤ 0.2
63 | IKCR | ≤ 0.2
64 | MVGS | ≤ 0.2
65 | IPNS | ≤ 0.2
66 | QWKV | ≤ 0.2
67 | LCAG | ≤ 0.2
68 | RFCT | 0.725
69 | YTHR | ≤ 0.2
70 | TGQD | ≤ 0.2
71 | IRNL | ≤ 0.2
72 | FAAC | ≤ 0.2

Row | Variant | one-hybrid fitness for binding parS DNA
73 | PANL | ≤ 0.2
74 | KYNC | ≤ 0.2
75 | LEPT | ≤ 0.2
76 | NTKT | ≤ 0.2
77 | CYQG | ≤ 0.2
78 | NKSL | ≤ 0.2
79 | GARC | ≤ 0.2
80 | THCA | ≤ 0.2
81 | QCPR | ≤ 0.2
82 | FLGC | ≤ 0.2
83 | CERR | ≤ 0.2
84 | MCKS | ≤ 0.2
85 | PVNL | ≤ 0.2
86 | GERS | ≤ 0.2
87 | MKRT | ≤ 0.2
88 | AYWS | ≤ 0.2
89 | DFAT | ≤ 0.2
90 | TTHM | ≤ 0.2
91 | SDTV | ≤ 0.2
92 | YLNC | ≤ 0.2
93 | YVNG | ≤ 0.2
94 | WFQR | ≤ 0.2
95 | GDPY | ≤ 0.2
96 | WGPT | ≤ 0.2

Row | Variant | one-hybrid fitness for binding parS DNA
97 | MEAP | ≤ 0.2
98 | QPRH | ≤ 0.2
99 | LGIR | ≤ 0.2
100 | VAEF | ≤ 0.2
101 | WTAW | ≤ 0.2
102 | MTYF | ≤ 0.2
103 | TGPV | ≤ 0.2
104 | RWCY | ≤ 0.2
105 | RQYF | 0.256
106 | VVHS | ≤ 0.2
107 | PVHC | ≤ 0.2
108 | PKNR | ≤ 0.2
109 | DNMG | ≤ 0.2
110 | QPMR | ≤ 0.2
111 | AVPN | ≤ 0.2
112 | WEVL | ≤ 0.2
113 | LKSP | ≤ 0.2
114 | YPPK | ≤ 0.2
115 | TTHG | ≤ 0.2
116 | IRSD | ≤ 0.2
117 | TPGP | ≤ 0.2
118 | HCAN | ≤ 0.2
119 | VINA | ≤ 0.2
120 | HTVA | ≤ 0.2

Row | Variant | one-hybrid fitness for binding parS DNA
121 | HNTP | ≤ 0.2
122 | DMKI | ≤ 0.2
123 | TQYQ | ≤ 0.2
124 | NQRL | ≤ 0.2
125 | RIGT | 0.924
126 | WAST | ≤ 0.2
127 | PPDD | ≤ 0.2
128 | LPRA | ≤ 0.2
129 | YRAY | ≤ 0.2
130 | DLRH | ≤ 0.2
131 | ATDA | ≤ 0.2
132 | ERQN | ≤ 0.2
133 | GDNS | ≤ 0.2
134 | SPCM | ≤ 0.2
135 | RMVQ | 0.234
136 | GSQF | ≤ 0.2
137 | LSYR | ≤ 0.2
138 | GVHQ | 0.246
139 | SSYG | ≤ 0.2
140 | RIPA | 0.29
141 | QKGY | ≤ 0.2
142 | SGYR | ≤ 0.2
143 | VKPG | ≤ 0.2
144 | VRAC | ≤ 0.2

Row | Variant | one-hybrid fitness for binding parS DNA
145 | HCHG | ≤ 0.2
146 | RFLT | 0.75
147 | LCFL | ≤ 0.2
148 | GKHT | ≤ 0.2
149 | FVKR | ≤ 0.2
150 | SNMN | ≤ 0.2
151 | AMQC | ≤ 0.2
152 | RSGA | 0.597
153 | FATG | ≤ 0.2
154 | GYSK | ≤ 0.2
155 | FTKP | ≤ 0.2
156 | RYVG | 0.899
157 | DIPN | ≤ 0.2
158 | ADSS | ≤ 0.2
159 | HQTW | ≤ 0.2
160 | YVSF | ≤ 0.2
161 | PTRG | ≤ 0.2
162 | DNNR | ≤ 0.2
163 | GTWA | ≤ 0.2
164 | FGQS | ≤ 0.2
165 | RSPC | 0.421
166 | RYWL | ≤ 0.2
167 | GKAG | ≤ 0.2
168 | RCTW | 0.232

Row | Variant | one-hybrid fitness for binding parS DNA
169 | TDKD | ≤ 0.2
170 | FCLG | ≤ 0.2
171 | RPSY | ≤ 0.2
172 | QSAQ | ≤ 0.2
173 | MSVS | ≤ 0.2
174 | FVGC | ≤ 0.2
175 | LIKY | ≤ 0.2
176 | RQPE | ≤ 0.2
177 | RWAK | ≤ 0.2
178 | QVRW | ≤ 0.2
179 | NWRI | ≤ 0.2
180 | QALF | ≤ 0.2
181 | DILG | ≤ 0.2
182 | YLLV | ≤ 0.2
183 | SEAN | ≤ 0.2
184 | QMIA | ≤ 0.2
185 | NIPD | ≤ 0.2
186 | MESP | ≤ 0.2
187 | QKYC | ≤ 0.2
188 | HYYK | ≤ 0.2
189 | MVRV | ≤ 0.2
190 | WDGT | ≤ 0.2
191 | AADT | ≤ 0.2
192 | KGPR | ≤ 0.2

Row | Variant | one-hybrid fitness for binding parS DNA
193 | VHLG | ≤ 0.2
194 | ITRF | ≤ 0.2
195 | YHPG | ≤ 0.2
196 | ENLG | ≤ 0.2
197 | QAIA | ≤ 0.2
198 | QGST | ≤ 0.2
199 | CVAS | ≤ 0.2
200 | EALA | ≤ 0.2
201 | LIQD | ≤ 0.2
202 | DVVC | ≤ 0.2
203 | HVYT | ≤ 0.2
204 | YPPM | ≤ 0.2
205 | NTQF | ≤ 0.2
206 | MYLS | ≤ 0.2
207 | VAHT | ≤ 0.2
208 | VHWT | ≤ 0.2
209 | QVGG | ≤ 0.2
210 | THSS | ≤ 0.2
211 | LNLC | ≤ 0.2
212 | YQQT | ≤ 0.2
213 | MVGG | ≤ 0.2
214 | WPLC | ≤ 0.2
215 | KVTV | ≤ 0.2
216 | LQQT | ≤ 0.2

Row | Variant | one-hybrid fitness for binding parS DNA
217 | KMPW | ≤ 0.2
218 | LSSV | ≤ 0.2
219 | RPGA | ≤ 0.2
220 | ASMY | ≤ 0.2
221 | VRAF | ≤ 0.2
222 | MMPN | ≤ 0.2
223 | LQCR | ≤ 0.2
224 | IRIG | ≤ 0.2
225 | RTIC | 0.912
226 | FALL | ≤ 0.2
227 | LLVN | ≤ 0.2
228 | LEHH | ≤ 0.2
229 | GRAT | ≤ 0.2
230 | WMFT | ≤ 0.2
231 | CPNE | ≤ 0.2
232 | DTHT | ≤ 0.2
233 | FNSL | ≤ 0.2
234 | VSTR | ≤ 0.2
235 | RSED | ≤ 0.2
236 | HTAV | ≤ 0.2
237 | RMNP | ≤ 0.2
238 | AVHK | ≤ 0.2
239 | RYQR | ≤ 0.2
240 | ETKT | ≤ 0.2

Row | Variant | one-hybrid fitness for binding parS DNA
241 | EARR | ≤ 0.2
242 | RAHE | ≤ 0.2
243 | QAID | ≤ 0.2
244 | GYRH | ≤ 0.2
245 | QCLH | ≤ 0.2
246 | RVLP | ≤ 0.2
247 | LLQS | ≤ 0.2
248 | QKYR | ≤ 0.2
249 | QERC | ≤ 0.2
250 | PSSI | ≤ 0.2
251 | EAES | ≤ 0.2
252 | VDKA | ≤ 0.2
253 | YFFG | ≤ 0.2
254 | QYSR | ≤ 0.2
255 | YLKR | ≤ 0.2
256 | TIYC | ≤ 0.2
257 | TPNP | ≤ 0.2
258 | KWES | ≤ 0.2
259 | QIEL | ≤ 0.2
260 | GLFG | ≤ 0.2
261 | RPGQ | ≤ 0.2
262 | TLNS | ≤ 0.2
263 | YSLC | ≤ 0.2
264 | EALW | ≤ 0.2

Row | Variant | one-hybrid fitness for binding parS DNA
265 | RISE | ≤ 0.2
266 | KHTI | ≤ 0.2
267 | TGSK | ≤ 0.2
268 | IARL | ≤ 0.2
269 | WYVS | ≤ 0.2
270 | TAYM | ≤ 0.2
271 | HSPV | ≤ 0.2
272 | QKNF | ≤ 0.2
273 | CSDR | ≤ 0.2
274 | RERT | 0.216
275 | FWDI | ≤ 0.2
276 | ANNC | ≤ 0.2
277 | TMSG | ≤ 0.2
278 | AQNP | ≤ 0.2
279 | EDRY | ≤ 0.2
280 | IEKF | ≤ 0.2
281 | VLMG | ≤ 0.2
282 | TLVA | ≤ 0.2
283 | KHQT | ≤ 0.2
284 | LLNV | ≤ 0.2
285 | DPNH | ≤ 0.2
286 | PIEL | ≤ 0.2
287 | KTCW | ≤ 0.2
288 | CQLP | ≤ 0.2

Row | Variant | one-hybrid fitness for binding parS DNA
289 | AQPM | ≤ 0.2
290 | EWSR | ≤ 0.2
291 | ELRC | ≤ 0.2
292 | AKPE | ≤ 0.2
293 | SDYN | ≤ 0.2
294 | KHNR | ≤ 0.2
295 | ARDG | ≤ 0.2
296 | IMYC | ≤ 0.2
297 | RTVD | ≤ 0.2
298 | YCVL | ≤ 0.2
299 | DPPF | ≤ 0.2
300 | RGSK | ≤ 0.2
301 | QSER | ≤ 0.2
302 | STPL | ≤ 0.2
303 | CVYY | ≤ 0.2
304 | QACK | ≤ 0.2
305 | HINS | ≤ 0.2
306 | CSVN | ≤ 0.2
